In all, about 360,000 compounds went through this assay and about 25,000 (6.9%) were called active. This list was built around the results that the source calls inconclusive (neither active nor inactive); the mix of calls is not that of the screen. Calls follow the shape of the dose curve; as a rule, active = well fitted inhibition curve with a large enough effect; inconclusive = small, poorly fitted or top-dose-only effect; inactive = flat fitted curve, though single readings scatter. Potencies beside an inconclusive call are fits to weak or partial responses and may not hold up.
molecular target: Luciferin 4-monooxygenase (Photinus pyralis) (UniProt P08659); test: qHTS profiling assay for firefly luciferase inhibitor/activator using purifed enzyme and Km concentrations of substrates (counterscreen for miR-21 project); details: purified FLuc, luminescence inhibition; series mostly up to 57.5 µM; activity change, negative = inhibition: at the top concentration; also: nearly all actives have a fitted effect of over 55% in size;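 as to activity change, negative = inhibition: plate controls were vehicle for no effect and reference inhibitor for full effect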
Method in brief: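 Purified P. pyralis luciferase, 10 nM final, with Km-level 10 uM D-luciferin and 10 uM ATP in 50 mM Tris acetate pH 7.5, 10 mM Mg acetate, 0.01% Tween-20, 0.05% BSA; 6-point qHTS titration about 60 µM downward; luminescence read.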
Potency is read from the fitted curve at half-maximal effect; tags tell the direction and shape of the fitted curve.

Sequence of UniProt P08659 (P08659 whole entry, looked up): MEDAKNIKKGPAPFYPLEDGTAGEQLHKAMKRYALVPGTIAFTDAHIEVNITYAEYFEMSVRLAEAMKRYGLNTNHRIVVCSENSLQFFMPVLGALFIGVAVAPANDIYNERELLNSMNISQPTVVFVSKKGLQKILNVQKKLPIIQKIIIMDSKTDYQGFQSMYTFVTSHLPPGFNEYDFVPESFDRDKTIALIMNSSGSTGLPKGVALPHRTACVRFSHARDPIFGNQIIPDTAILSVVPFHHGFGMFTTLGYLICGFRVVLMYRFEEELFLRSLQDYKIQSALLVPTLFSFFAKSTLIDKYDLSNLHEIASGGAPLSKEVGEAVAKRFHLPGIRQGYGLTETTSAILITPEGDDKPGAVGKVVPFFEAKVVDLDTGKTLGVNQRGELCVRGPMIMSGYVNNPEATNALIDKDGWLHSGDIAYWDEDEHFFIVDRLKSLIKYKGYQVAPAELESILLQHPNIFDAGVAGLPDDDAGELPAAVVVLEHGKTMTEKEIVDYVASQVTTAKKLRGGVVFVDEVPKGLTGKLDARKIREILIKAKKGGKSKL

SMILES | activity change, negative = inhibition | Potency
COc1cccc(CNC(=O)Cc2c(C(=O)O)c(C)cn2C)c1 | inactive: 1.83% | –
Cc1cccc(NC(=S)Nc2ccccn2)c1 | – | inconclusive: 21.3 µM [inhibitor, single point]
O=C(N/N=C/c1ccc(OC(F)F)cc1)c1ccc(Br)cc1 | – | inconclusive: 7.57 µM [inhibitor, partial curve, poor fit]
CC(C)c1ccc(NC(=O)CN2C(=O)COc3ccc(S(=O)(=O)N4CCCCCC4)cc32)cc1 | – | inconclusive: 23.9 µM [inhibitor, partial curve, poor fit]
CCNC(=O)COC(=O)c1cc(-c2ccco2)nc2ccccc12 | – | inconclusive: 26.9 µM [inhibitor, single point]
COc1ccc(Cl)cc1S(=O)(=O)N1CCC(C(=O)NCc2ccccn2)CC1 | inactive: 0.93% | –
N/C(=N\OC(=O)Cc1ccc(Cl)cc1)c1ccncc1 | inactive: -4.46% | –
Nc1nc(-c2ccc3c(c2)OCCO3)cs1 | – | active: 9.53 µM
CN(C(=O)COC(=O)CNC(=O)c1ccc2ccccc2c1)c1c(N)n(Cc2ccccc2)c(=O)[nH]c1=O | – | inconclusive: 26.9 µM [inhibitor, single point]
C(=N\Nc1ccc2ccccc2n1)/c1ccc2c(c1)OCO2 | – | active: 0.19 µM
O=c1oc(-c2ccc(Br)o2)nc2ccccc12 | – | inconclusive: 7.57 µM [inhibitor, partial curve]
O=C(NC1CCCC1)c1sc(=S)n2c1[nH]c(=O)c1ccccc12 | – | inconclusive: 37.9 µM [inhibitor, single point]
COc1ccc(NC(=O)c2cccc(NC3=NC4CS(=O)(=O)CC4S3)c2)cc1Cl (stereo unspecified) | – | inconclusive: 26.9 µM [inhibitor, single point]
CCOC(=O)C1=C(c2ccccc2)NC(N)=NC1c1ccc(OCc2ccc(Cl)cc2)c(OC)c1 (stereo unspecified) | – | active: 13.5 µM
Cc1ccc2nc(SCc3nc4c(cnn4-c4ccccc4)c(=O)[nH]3)[nH]c2c1 | – | inconclusive: 6.75 µM [inhibitor, full curve]
COc1ccc(N2CCN(C(=O)c3ccc(NS(=O)(=O)c4cccs4)cc3)CC2)cc1 | – | inconclusive: 23.9 µM [inhibitor, partial curve, poor fit]
CSc1cccc(Nc2cc(C(=O)NCCCN(C)c3ccccc3)c3ccccc3n2)c1 | – | inconclusive: 10.7 µM [inhibitor, partial curve, poor fit]
COc1ccc(-n2c(=S)[nH]c3cc(C(=O)Nc4ccc(C)c(F)c4)ccc3c2=O)c(OC)c1 | – | inconclusive: 37.9 µM [inhibitor, partial curve, poor fit]
Cc1ccc(-n2c(C)nnc2SCC(=O)NC2CC2)cc1 | inactive: -4.89% | –
COC(=O)c1c(NC(=O)CCNCc2ccco2)sc2c1CCC2 | inactive: -1.01% | –
CCOc1cc(/C=N/Nc2nc3ccccc3[nH]2)cc(Br)c1OCC(=O)N(C)C | – | active: 23.9 µM
CCCCC(CC)C(=O)Nc1ccccc1C(=O)NC(C)C (stereo unspecified) | inactive: -1.91% | –
COc1cccc(NC(=O)c2cc(-c3ccc(C)o3)nc3ccccc23)c1 | – | inconclusive: 3.79 µM [inhibitor, full curve]
CC(C)c1ccc(Nc2cc(C(=O)NC3CCCCC3)c3ccccc3n2)cc1 | inactive: -4.47% | –

SMILES | activity change, negative = inhibition | Potency
COc1ccc2cc(C(=O)OC(C)C)sc(=O)c2c1OC | – | inconclusive: 21.3 µM [inhibitor, partial curve, poor fit]
COc1ccccc1NC(=O)CSc1nc(-c2ccc(C(C)(C)C)cc2)c(C#N)c(=O)[nH]1 | – | inconclusive: 15.1 µM [inhibitor, partial curve]
CN(C)c1ccc(N=Nc2ccc(S(=O)(=O)O)cc2)c2ccccc12 | – | active: 16.9 µM
CCc1ccccc1OCC(=O)Nc1ccc(S(=O)(=O)Nc2nc(C)cc(C)n2)cc1 | – | inconclusive: 16.9 µM [inhibitor, partial curve, poor fit]
Brc1cccc(Cn2c(-c3cncs3)nc3ccccc32)c1 | – | inconclusive: 30.1 µM [inhibitor, partial curve, poor fit]
COC(=O)c1ccccc1S(=O)(=O)N1CCC(C(=O)OCC(=O)c2ccccc2OC)CC1 | – | inconclusive: 33.8 µM [inhibitor, partial curve, poor fit]
C=CCNC(=S)Nc1ccc2nc(C)c(C)nc2c1 | – | inconclusive: 23.9 µM [inhibitor, partial curve, poor fit]
COc1ccc(-c2noc(C3CCCN(C(=O)c4ccccc4OC)C3)n2)cc1 (stereo unspecified) | – | inconclusive: 37.9 µM [inhibitor, partial curve, poor fit]
Cc1ccc(-c2nc3ccccc3nc2Cl)cc1 | – | inconclusive: 30.1 µM [inhibitor, single point]
Cc1cc(N/C=C/C(=O)c2cccc3ccccc23)no1 | – | inconclusive: 23.9 µM [inhibitor, partial curve, poor fit]
COC(=O)c1ccc(-c2nc(-c3cccs3)no2)cc1 | – | active: 0.151 µM
CC(C)C(=O)NC(=O)COC(=O)/C=C/c1cccs1 | – | inconclusive: 30.1 µM [inhibitor, partial curve, poor fit]
O=C(N/N=C/c1ccc([N+](=O)[O-])cc1)c1cccs1 | – | inconclusive: 6.01 µM [inhibitor, full curve]
COc1ccc(OCCSc2nnnn2C2CCCCC2)cc1 | – | inconclusive: 33.8 µM [inhibitor, single point]
Cc1cccc(OCC(=O)NCCNC(=O)c2ccncc2)c1 | inactive: 0.0033% | –
Cc1ccccc1NC(=O)c1nc2nccc(C)n2n1 | – | inconclusive: 26.9 µM [inhibitor, partial curve, poor fit]
Clc1ccc2c(c1)NC(c1ccncc1)=NC(c1cccs1)=N2 | – | inconclusive: 23.9 µM [inhibitor, partial curve, poor fit]
Oc1ccccc1/C=N/Nc1cc(N2CCCC2)nc(N2CCCC2)n1 | – | inconclusive: 26.9 µM [inhibitor, single point]
O=C(Nc1nc(-c2ccccc2)cs1)c1ccco1 | – | active: 15.1 µM
O=C(Nc1nnc(-c2cccs2)o1)c1ccc(S(=O)(=O)N2CCOCC2)cc1 | inactive: -12% | –
Cc1c(C(=O)N2C[C@@H](C)O[C@@H](C)C2)oc2c(F)cccc12 | – | active: 15.1 µM
CCC(=O)OCC(=O)Nc1cc([N+](=O)[O-])ccc1OC | inactive: -0.396% | –
Cc1ccc(-c2nc(C#N)c(NCCc3ccccn3)o2)cc1 | – | inconclusive: 3.79 µM [inhibitor, full curve]
CC(=O)Cc1nsc(NC(=O)c2cc(-c3ccccc3Cl)oc2C)n1 | – | inconclusive: 10.7 µM [inhibitor, partial curve, poor fit]

SMILES | activity change, negative = inhibition | Potency
Cc1ccc(CNC(=O)Nc2ccc(F)cc2F)n1C | – | inconclusive: 37.9 µM [inhibitor, single point]
COc1ccc(CNC(=O)c2cc(-c3cc(C)cc(C)c3O)n[nH]2)cc1 | – | inconclusive: 37.9 µM [inhibitor, partial curve, poor fit]
Cc1cccc(NC(=O)c2cc3c(=O)n4cccc(C)c4nc3s2)c1C | inactive: -1.8% | –
N#C[C@@H]1[C@@H]2C(=O)N(c3ccc4c(c3)OCCO4)C(=O)[C@@H]2C2c3ccccc3C=CN21 (stereo partly specified) | – | inconclusive: 37.9 µM [inhibitor, single point]
CCn1c(/N=C/c2ccccc2NS(=O)(=O)c2ccc(C)cc2)nc2ccccc21 | inactive: -0.326% | –
COc1ccc(-c2csc(/C(C#N)=C(\O)CSc3nccn3C)n2)cc1OC | inactive: -8.22% | –
Cc1cc(NCCCn2ccnc2)n2nc(C)c(-c3ccc(Cl)cc3)c2n1 | – | active: 15.1 µM
CCOc1cc(/C=C/c2nc3ccccc3c(=O)[nH]2)ccc1O | – | inconclusive: 7.57 µM [inhibitor, full curve]
O=C(CSc1cccc[n+]1[O-])Nc1ccccc1Oc1ccccc1 | – | inconclusive: 37.9 µM [inhibitor, single point]
C=CCn1c(-c2cc3c(s2)CCC(CC)C3)n[nH]c1=S (stereo unspecified) | – | active: 30.1 µM
O=Cc1ccc(N2CCCCCC2)cc1 | – | inconclusive: 23.9 µM [inhibitor, single point]
CCc1nnc(NC(=O)c2cccc(S(=O)(=O)N3CC(c4ccccc4)CC3=O)c2)s1 (stereo unspecified) | – | inconclusive: 37.9 µM [inhibitor, partial curve, poor fit]
O/N=C/c1cn(-c2ccc(Cl)cc2)nn1 | – | inconclusive: 23.9 µM [inhibitor, partial curve, poor fit]
CCn1c2ccccc2c2c3ncc4cccn4c3ccc21 | – | active: 3.01 µM
O=C(O)CCn1c2ccccc2c2nc3ccccc3nc21 | – | inconclusive: 30.1 µM [inhibitor, single point]
Cc1ccc2oc(-c3ccc(C)c(NC(=O)c4ccc(N5CCC(C)CC5)c([N+](=O)[O-])c4)c3)nc2c1 | – | inconclusive: 26.9 µM [inhibitor, partial curve, poor fit]
Cc1nn(-c2ccccc2)c2c1C(c1cccs1)C(C#N)=C(N)O2 (stereo unspecified) | – | active: 15.1 µM
Cc1ccc(NC(=O)c2cc(N3C(=O)C=CC3=O)ccc2Cl)cc1C | – | inconclusive: 37.9 µM [inhibitor, single point]
CCc1nn(CC(=O)NCCN2CCN(C)CC2)c(=O)c2cc3c(OC)cccc3n12 | inactive: -1.52% | –
O=C1COc2ccc(C(=O)c3ccccc3C(=O)O)cc2N1 | inactive: -1.29% | –
CCOc1ccc(NC(=O)C2CCCN(c3ccc(Sc4ccc(C)cc4)nn3)C2)cc1 (stereo unspecified) | inactive: 5% | –
Cc1ccc(C(CC(=O)c2ccco2)SCCO)cc1 (stereo unspecified) | – | active: 10.7 µM
CSc1nc(-c2ccco2)nn1C(=O)c1ccco1 | – | inconclusive: 12 µM [inhibitor, partial curve, poor fit]
